# Results: ChEMBL document CHEMBL4888484, “Replenishing the malaria drug discovery pipeline: Screening and hit evaluation of the MMV Hit Generation Library 1 (HGL1) against asexual blood stage Plasmodium falciparum ,using a nano luciferase reporter read-out” (2022)
# About 540 (0.36%) of roughly 150,000 compounds showed an effect of 50% or more. The list shows a part of the results.
# Test system: Plasmodium falciparum
# Assay: Primary screen in NF54 nanoGlo assay, in single point, at 2uM, 72h; a lower Z score goes with more inhibition
# Type: functional, Erythrocyte
# Details: timepoint 72 hour
SMILES,% Inhibition,Z score
COCCOCC(=O)Nc1cccc(Cl)c1C,-12%,1.24
O[C@H]1CCC[C@@H]1n1nc(C(F)(F)F)cc1C1CC1,-14%,2.06
Cc1nc(C)n(CCNC(=O)C[C@H]2COCCN2Cc2ccc(C)o2)n1,-3%,0.33
O=C(c1cccnc1)N1CC[C@@H]2OCc3cnnn3[C@@H]2C1,-8%,1.42
C[C@@H](C(=O)O)N(C)CCc1ccc2c(c1)CCO2,-1%,0.08
O=C(c1sc2ccccc2c1Cl)N1CCC(Nc2nccs2)CC1,-9%,1.52
CN1CC[C@H](N(C)C(=O)c2cnc(-c3ccc4c(c3)OCO4)nc2Nc2ccccc2F)C1,-7%,0.87
O=C(c1cccc(Oc2ccc(F)cc2)c1)N1CCN(c2cccnc2)C(=O)C1,17%,-2.12
Cc1cc(CNC(=O)NC(C)(C)C)on1,-6%,0.99
Cc1oc(-c2cc(C(F)(F)F)on2)cc1S(=O)(=O)N[C@H]1CCNC1=O,-6%,0.99
O=C(NCCCc1cccnc1)[C@H]1CCS(=O)(=O)C1,-4%,0.71
COC(=O)Nc1ccc(O[C@@H](C)c2ncc(Br)cn2)cc1,21%,-2.67
CC[C@H](NS(=O)(=O)c1cc(Cl)cnc1N)c1nccs1,8%,-1.08
NC(=O)[C@@H]1CN(C(=O)c2ccc(Br)cc2Oc2ccc(F)cc2)CCO1,32%,-4.68
CN(c1nc(Cn2cnc(C#N)c2C#N)cs1)C1CC1,-2%,0.25
CC1CN(Cc2cnc3ccnn3c2)CC(C)[S+]1[O-] (centres undefined),-7%,1.11
O=C(NC1CC=CCC1)C1CC(O)CN1C(=O)Cc1ccccc1F (centres undefined),0%,-0.07
O=C(Cn1nc2c(N3CCOCC3)nc3ccccc3n2c1=O)Nc1cccc(Br)c1,-5%,0.69
C=CCN1CC[C@H](N(C)C(=O)Nc2cccc(OCCF)c2)C1=O,-11%,1.22
CN(C)c1cccc(C(=O)N2CCN(C(=O)c3nnn4c3CO[C@H](c3ccc(Cl)cc3)C4)CC2)c1,-19%,1.79
CC[C@H]1CN(Cc2noc(C(C)C)n2)CCO1,-10%,1.92
Cc1ccc2nc(-c3ccc(C)o3)c(NC(=O)c3cccc(Br)c3)n2c1,-8%,1.12

SMILES,% Inhibition,Z score
C[C@H]1CCCCN1C(=O)CCNc1ccc(Cl)cn1,0%,-0.07
Cc1cc(C)c2c(CN(C)C[C@H]3COCCO3)cc(C)nc2c1,-10%,1.97
CCc1nn(C)c(Cl)c1CN1C[C@H]2CC[C@@H](C1)N(CC1CC1)C2,-6%,0.7
COc1ccc(N2CCN(C(=O)Cn3ncccc3=O)CC2)cc1,-2%,0.25
O=S(=O)(N1CCCC1)N1CCCN(CCc2ccccn2)CC1,1%,-0.14
CNC(=O)CN(C)C(=O)c1csc(NC(C)=O)n1,-10%,0.93
Cc1ncc(-c2nc3c(cnn3C[C@@H]3CC=CCC3)[nH]2)n1C,-3%,0.54
O=C(c1cnn2ccncc12)N1CC[C@H](C(F)(F)F)C1,-22%,2.36
Oc1ccc(Cl)c(CN2CCC[C@H]2c2ncn[nH]2)c1,-3%,0.46
OCCn1nc(C2CCCC2)nc1Cc1cccnc1,-17%,1.69
Cn1cnnc1NC(=O)Cc1cccc(Br)c1,2%,-0.26
Cn1cc(CN2CCC(C(=O)NC3CCCC3)CC2)c2cc(Cl)ccc21,0%,0.02
Cc1ccc(NC(=O)[C@@H]2CNC[C@H](C(=O)NCc3ccc(C)c(C)c3)C2)cn1,3%,-0.45
FC(F)(F)c1ccc2sc(N3CCOC[C@H]3c3nnc(-c4ccccc4)o3)nc2c1,-7%,0.87
CC(C)[C@H](NC(=O)N(C)Cc1ccnc2ccccc12)C(=O)O,-8%,1.68
C[C@@H](c1nnc(-c2ccc(F)cc2)o1)N(C)Cc1ccco1,4%,-0.83
C[C@H]1CCCN(C(=O)c2nn(C)c3ccccc3c2=O)C1,-7%,0.84
CNC(=O)[C@@H](Nc1nccc(C)n1)C(C)C,-15%,1.52
CC(C)C[C@H]1CCCCCN1CC(=O)NCC#N,2%,-0.26
COc1ccc([C@H](C)NC(=O)Cn2c(C)cc3nc4n(c(=O)c32)CCCCC4)cc1,26%,-2.92
O=C(c1ccc(C(F)(F)F)cc1)N1CCN([C@H]2CCN(Cc3ccccn3)C2=O)CC1,-16%,2.05
CCOC1CC(OC(=O)c2cc(C)n(C)n2)C1(CC)CC (centres undefined),5%,-0.72

SMILES,% Inhibition,Z score
O=C([C@H]1CCOC1)N1CCCn2nc(-c3nc4cc(F)ccc4[nH]3)cc2C1,-3%,0.6
CN1CCN([C@@H]2COC3(C2)CN(C(=O)COc2ccccc2)C3)CC1,-15%,2.3
CCCN(CC(=O)N1CCc2sccc2[C@@H]1COc1ccccc1OC)C(C)=O,-8%,0.87
CC[C@@H](C(N)=O)N(c1ccc(C)c(Cl)c1)S(C)(=O)=O,-17%,2.86
CCc1nc(CC)n(Cc2csc(CS(C)(=O)=O)n2)n1,-2%,0.4
Cc1cc(C)c(C#N)c(N2CCC3(CCOCC3)CC2)n1,-8%,1.53
C[C@@H](c1ccncc1)N(C)Cc1ncc[nH]1,4%,-0.55
COc1cccc(CN2CCN(C(=O)CC[C@]3(Cc4ccc(C)cc4)CCC(=O)N3)CC2=O)c1,8%,-1.09
CCNc1nc(C)c(C(=O)N2CCNC[C@H]2C(=O)NC2CC2)s1,-1%,0.18
CC(=O)N1CC[C@H](c2ccc(F)cc2)[C@@H](NC(=O)OC(C)(C)C)C1,6%,-0.66
CC(C)c1ccc(-c2c(N3CCCC3)cn[nH]c2=O)cc1,0%,0.04
O=C(NCc1ccccn1)c1c[nH]c2cc(Cl)ccc2c1=O,5%,-0.63
COc1ccccc1/N=C(/NC(=O)c1cccc(C)c1)N1CCN(C)CC1,-7%,1.24
CCn1cnnc1CCn1cc(-c2nccs2)nn1,-6%,0.68
Cc1cnn(CCNC(=O)N[C@H]2CS(=O)(=O)c3ccccc32)c1,-3%,0.34
CN(C(=O)[C@@H]1Cc2cncn2C(=O)N1)C1CCCCCC1,-15%,1.99
CCc1cccc(NC(=O)N(Cc2ccc(OS(=O)(=O)c3ccc(F)cc3)cc2)CC(C)C)c1,-2%,0.21
CC1CCN(CCN(C)C2CCCC2S(C)(=O)=O)CC1 (centres undefined),-8%,1
Cn1ncnc1NS(=O)(=O)c1ccc(C2CCCCC2)cc1,-2%,0.2
CC(=O)N1CCCN(Cc2ncc(C(F)(F)F)s2)CC1,0%,0.02
CC(C)(C)OC(=O)Nc1ncc(CNc2ccc(Cl)cn2)s1,0%,-0.04
CN(C)CCN[C@@H](CC(=O)Nc1cccc(Cl)c1Cl)C(=O)O,-34%,4

SMILES,% Inhibition,Z score
NCc1c(Cl)cccc1-n1cccc1CO,-10%,1.17
CC(C)(C)c1nn(CC(N)=O)cc1Br,31%,-3.48
CCOc1ccc(NC(=O)Nc2c(C3=CCCCC3)c(C)nn2C)cc1,-8%,1.38
CC1=C(C)CN(C(=O)N[C@@H](C)c2ncc(C)o2)CC1,2%,-0.24
C[C@H]1CCCN1CCNC(=O)Cc1ccc(OC(F)F)cc1,4%,-0.36
COc1ccnc(CN[C@@H](C)c2ccc(C#N)cc2)c1OC,-11%,1.42
CCc1noc(CN(C)CC(=O)NCc2ccco2)n1,8%,-1.51
COc1ccc(OCCN2CC[C@H]3CCCC[C@H]3C2)cc1,-4%,0.62
COc1ccccc1N1CCN(c2ncccc2CNC(=O)[C@H]2CCCN2)CC1,-18%,1.74
O=C(c1cccnc1)N1CCC(F)(F)[C@@H](COCc2ccccc2)C1,1%,-0.16
Cc1cnc(C[C@H]2CCCN(S(=O)(=O)Cc3ccccc3)C2)n1CC1CC1,7%,-1.12
CC(C)Oc1cnccc1C(=O)N1CC(C)(C)[C@@H]1C1CC1,2%,-0.36
Cc1onc(C(=O)NC2CCCCC2)c1C,8%,-0.96
O=C(c1cccc(C(F)F)c1)N1CCN(C(=O)c2ccc3[nH]cnc3c2)CC1,6%,-0.57
O=C(NCc1nnc2n1CCC2)c1ccc2ccccc2n1,-1%,0.11
Cc1ccc(S(=O)(=O)Oc2cc(C)n(C)c(=O)c2)cc1,-7%,1.26
Nc1ncccc1CN1CCN(c2nccc3ccccc23)C[C@@H](O)C1,-23%,2.3
Cc1cc(OCC(=O)Nc2ccccc2)nnc1C,-9%,1.66
NC(=O)CO[C@H]1CCC12CCN(C(=O)c1ccc(F)cc1F)CC2,-9%,1.18
O=C(c1ccc(-c2ccco2)[nH]c1=O)N1CCC[C@H]1c1ccncc1,1%,-0.19
Clc1cccc2ccc(NCC[C@H]3CCCOC3)nc12,8%,-1.1
